# From publication PMC10668032
# This is one part of the list. At the low end of the ranking, values are background and their order means little.
# Molecular target: SIX1-Q177R homeodomain (UniProt Q15475)
# Assay: universal protein binding microarray
# Details: Universal all-10-mer PBM (8x60K, AMADID 030236), 300 nM GST-tagged protein, Alexa Fluor 488 anti-GST; buffer, salt, pH and temperature not stated; high values mean tight binding; most listed sequences are background and not binding sites; double strand, one strand shown
row,Sequence,binding signal [E-score]
1,AGAGCGCG,-0.246
2,ATCCCCGA,0.0891
3,GTTCGCCA,-0.203
4,GACCGAAC,-0.13
5,GGTGTGTA,0.411
6,AATAGTTC,-0.312
7,CCGCTACA,0.215
8,GAGCGCTA,-0.139
9,CAGCGTTC,-0.157
10,ATTATTTC,-0.0658
11,AATTGATG,-0.107
12,TCGATTCA,0.00232
13,ACTTGGCG,-0.124
14,CTCAGCGA,0.044
15,CATTGTGC,-0.154
16,ACTAAGCC,-0.0781
17,CTCGATTC,-0.264
18,TACGGAAA,-0.131
19,CCTAGCTC,-0.0229
20,CGGGCTAA,0.0273
21,CCCACCGG,0.085
22,ATACCCGC,0.266
23,AGGGGAAT,-0.093
24,CACCCACA,0.365
25,AACAGCAG,-0.232

row,Sequence,binding signal [E-score]
1,AGAGAAAT,-0.35
2,ATCGTCTC,-0.0682
3,AACAACCA,-0.0599
4,TAAGGCTA,0.0119
5,AAGGCCGT,-0.131
6,CCGATCCG,0.217
7,GAGTCGAC,0.212
8,ATGCGACC,-0.0999
9,TCCCCCCA,-0.12
10,ACACGGAC,0.367
11,ACGTGACA,0.126
12,CGAGGGTC,0.107
13,AATGGTGG,-0.0246
14,GGTACACC,0.485
15,ATCGAGCG,-0.00387
16,CGACTGCG,-0.139
17,ACTGCCGC,-0.0696
18,ACTGCTAT,-0.07
19,CCTCTCGC,0.0448
20,AGGGCGAA,-0.205
21,ACCCGAAC,0.173
22,AGCTCTAG,-0.133
23,GAGACCTA,-0.277
24,ATCTTCAG,-0.182
25,CGAAGCGC,-0.0557

row,Sequence,binding signal [E-score]
1,CTCATAAA,-0.146
2,TCCCCTAA,0.172
3,GTTTGCTA,0.0544
4,GCGTCCAC,-0.0851
5,ACTAAACG,0.0995
6,CTGCACCC,0.209
7,ATTGCAGC,-0.128
8,AACAAGTA,-0.187
9,AATTAGTA,0.0282
10,AGGCCTGA,-0.149
11,ATATGTCA,-0.233
12,ATCTGGAC,-0.134
13,CAAATGAG,-0.143
14,AGGTTCGA,0.038
15,GCTGCACA,0.0436
16,CAAACTCC,-0.173
17,TGGAGACA,0.12
18,CATTTAGC,-0.019
19,CGCCCAGC,0.161
20,ACCCGGCG,0.235
21,ACAACCCT,0.134
22,CCCAAAAG,-0.0822
23,GATGATGC,-0.156
24,AGAAGTTA,-0.0957
25,AATGTGAA,-0.24

row,Sequence,binding signal [E-score]
1,CAGATTCA,-0.14
2,CCTAACAA,-0.0714
3,ATACGTAT,0.0181
4,AAACCGCT,-0.0952
5,GATTCCAA,0.023
6,ATTAACCA,-0.167
7,CGTGCCTC,-0.158
8,ATCTCCAT,-0.00556
9,AAGAGGGC,-0.156
10,GTTGCCTA,-0.12
11,GCGGACAC,0.406
12,TAAAATAA,-0.0356
13,CCCAGATA,0.0386
14,CGTACACC,0.483
15,ATACGGGG,0.171
16,ACGGCCCC,-0.229
17,GATATAGC,-0.0754
18,CTAGAGGC,-0.186
19,AGTCTTCC,-0.183
20,GCACGTTA,0.0329
21,GCGATCAA,-0.0272
22,CATGGATC,-0.0404
23,GCAGTGCC,-0.179
24,AATATGGC,-0.174
25,AGGACCAG,-0.194

row,Sequence,binding signal [E-score]
1,GGCCAGAA,-0.0561
2,ATAACTAA,0.0971
3,GGCATGCC,-0.206
4,TCTGCTAA,-0.223
5,AGGGTGCC,0.0895
6,CTGTCACC,-0.0158
7,CGACCAGC,-0.0689
8,AATGCGGG,-0.0794
9,ACCTTCAT,0.00864
10,ATCGAAGC,-0.0597
11,CTCAGGAC,-0.132
12,CGCCGGGA,-0.0506
13,GGGAAATA,-0.205
14,GCGTACCC,0.237
15,ACGGGCAA,-0.0223
16,ACCTACCT,0.0857
17,CGCAGCAA,-0.152
18,CCGCACCG,0.132
19,ACTGGTGG,0.0343
20,AAGACTAT,-0.132
21,ACTACTCT,0.0953
22,GCCGGGAC,-0.0849
23,ACCTCACT,0.0834
24,AAATCGCG,-0.158
25,ACGGGGTG,0.338

row,Sequence,binding signal [E-score]
1,TACTCCGA,0.211
2,CGTTCTTC,-0.126
3,CCCTAAGA,0.276
4,CCGGCAAA,0.0012
5,GCTCTAAC,0.0115
6,CTGTCGGA,-0.0989
7,CTATGCAG,0.0387
8,ACAACTAC,0.0708
9,AGTATTTA,0.00369
10,ATCGCGCC,-0.136
11,CCACTCGC,0.222
12,GTTTATAA,0.0856
13,GCTAGTGA,-0.145
14,GTTCCACA,0.128
15,GAGACCCA,-0.153
16,ATAATAAC,-0.0614
17,GACCGGCA,-0.0159
18,ACAGGGAA,-0.0935
19,ACGTAAGG,-0.0875
20,AGGGGAGG,0.126
21,AGAGGCAG,-0.124
22,ACACCGTC,0.459
23,ATGAAGGA,0.0681
24,CCTCATTA,0.0548
25,TAAGTTAA,-0.0429

row,Sequence,binding signal [E-score]
1,TAGCCTCA,-0.0394
2,ACAAAACC,-0.0304
3,CCCAAGAG,-0.0214
4,AGCCGCGA,0.0221
5,AACATTGT,-0.209
6,AACCCTAT,0.0221
7,ACCGATGC,-0.0302
8,AGTGCAAT,0.0431
9,AGCTACAT,-0.0103
10,AGTGACAG,-0.272
11,CACTTTCG,0.116
12,GCAGACAA,-0.175
13,CCGATGCA,0.0461
14,GACTTGCA,-0.162
15,ATAGAAAC,-0.0877
16,GGTCCCCA,-0.112
17,GGCTGACA,0.254
18,GACGAAAA,-0.206
19,AATTCAGA,-0.17
20,TCTCGGCA,-0.0762
21,TCTCACAA,-0.141
22,CTCAAAGC,-0.253
23,ATTCCTGA,0.0148
24,ACACCAAG,0.455
25,AGAATCTG,-0.186

row,Sequence,binding signal [E-score]
1,AAAAGAAG,-0.102
2,GACGGCTC,-0.0832
3,GAATATTC,-0.148
4,GGGTAGAC,0.0222
5,ACCAGGAA,-0.208
6,CTCCTGAC,0.148
7,ACGCGCGG,0.0107
8,GTCAGAAA,-0.109
9,CTCCCGTC,0.00376
10,CGAGCTCG,0.0221
11,CTACATCA,-0.0239
12,AGAGAAGC,-0.217
13,ATACTCTG,0.0991
14,AAGCGAAC,-0.106
15,CATCCTCG,-0.0593
16,ACTCTACC,0.151
17,CTGCCAAA,-0.183
18,ACCAGCCC,0.104
19,CTGTTAGA,-0.0247
20,GTGACTAA,-0.25
21,CAACAGGC,-0.25
22,GCTGGCAA,-0.196
23,AAGCAGTG,0.225
24,AATTCACA,-0.0493
25,ATTTCTGC,-0.326

row,Sequence,binding signal [E-score]
1,GGATCCAC,0.103
2,ACAAATAC,-0.0491
3,GATGCGGA,0.138
4,GCCACTGA,-0.163
5,CAAACAGA,-0.152
6,ATTGAGGA,-0.26
7,GGTACCGA,-0.156
8,TCATGGGA,-0.0306
9,AACGGGCC,-0.131
10,CCTTCCCC,0.0316
11,AGAATTCG,-0.114
12,GCTCATTA,-0.0591
13,ACACCCGG,0.482
14,ATGTTGTA,-0.242
15,CCAGGGCC,-0.0574
16,CCAATGTC,-0.123
17,CGCGACTC,0.0918
18,ACCTCAGA,0.128
19,CCGCCCGC,0.125
20,ATCGCCCG,0.0214
21,TTTGAAAA,-0.0229
22,CCAAAAAG,-0.0374
23,CTGACAAA,-0.103
24,CGCATGCG,-0.115
25,ACATGCTG,0.0272

row,Sequence,binding signal [E-score]
1,ACTGACGC,-0.0329
2,GTGACACA,0.333
3,ACGTTGTG,-0.0413
4,ACATGGCG,-0.0948
5,AGCGAACC,-0.0683
6,AGGCTGTC,-0.172
7,CTGACACC,0.491
8,CGCCAACA,0.0308
9,CATTATCC,0.119
10,ATGCGTCG,-0.186
11,TCGTTAAA,-0.0551
12,CGGGACCC,0.13
13,CGGACAGA,-0.226
14,CAATAAGC,-0.0379
15,AGGACGCA,-0.182
16,GCTTAACC,0.0244
17,GCAAGCAC,-0.0381
18,CTGCGAAG,-0.0304
19,GACATAGC,-0.206
20,ATGCGACG,-0.128
21,AGAGTACC,0.0918
22,CGCATGTC,-0.38
23,CGCTTCAG,-0.102
24,CCCCCAGG,0.213
25,CGATTACA,0.143

row,Sequence,binding signal [E-score]
1,CAAATTAG,-0.116
2,GTACCTAC,0.152
3,AAGTTGAT,-0.0316
4,CCCTTAGA,0.0471
5,AGGTGCCA,0.138
6,GTACAGAA,-0.0776
7,CTCAAACA,0.0362
8,CTAACGAA,-0.287
9,CGGCGAGC,-0.189
10,CTAGGCTC,-0.0975
11,AATTCAGT,-0.0393
12,AGTTCTAT,-0.0641
13,AGGCGTGA,-0.0447
14,CGTTCTGA,-0.0864
15,CACTTCGC,0.0794
16,GCCTTGAA,-0.149
17,AGTTGCTA,-0.182
18,CGCGGAAA,-0.0865
19,AGGGTCTG,-0.0319
20,ATTCAGAG,0.0687
21,GTACTGAA,-0.00226
22,ACCTATGC,-0.143
23,AGCAGGCC,-0.212
24,GGCTATTA,-0.123
25,CCACCCGA,0.206

row,Sequence,binding signal [E-score]
1,CTATAATA,0.0234
2,AAGATCTC,-0.117
3,GCGGGAAC,-0.103
4,GTTAGGTA,0.115
5,CGGAACCA,0.118
6,TAGTTAGA,-0.0449
7,CCTCATCC,-0.104
8,AACTTCCG,-0.144
9,GGCCGGGA,-0.0793
10,GGAAGCCC,-0.143
11,TCGACCCA,-0.0349
12,AAAGTTTC,-0.14
13,ACGCTACC,0.0683
14,GGAGCACA,-0.00617
15,CAAAATCG,-0.241
16,ACAGTCTA,-0.234
17,GCTTTCCC,-0.181
18,CCAAATGG,0.108
19,CCCGAGAC,0.204
20,ATTAGCAC,0.105
21,CGCCGTAC,0.178
22,GCAGCCCA,-0.00205
23,CCAATTTA,0.238
24,CGCCCGAC,0.184
25,AGCTATTC,-0.137

row,Sequence,binding signal [E-score]
1,AAAATCCT,-0.263
2,AACAGTCG,-0.173
3,CGACGGTC,-0.197
4,CAGCAAAG,-0.184
5,ACCCTAGA,0.176
6,GACGAGCA,-0.117
7,GCAGGGTA,0.162
8,ACTAGGAT,-0.0985
9,AGGGGAAA,-0.203
10,GTGCCCAA,0.0527
11,ACAATGGG,-0.103
12,TACGACGA,-0.0459
13,AGCAGCGC,-0.199
14,CTGGACGC,0.00366
15,CTGGATGC,-0.21
16,CCTCCGGA,0.104
17,TAAATGCA,-0.131
18,CGGCATTA,-0.0854
19,CCTTTCAG,-0.0999
20,CGTAATAC,0.0298
21,CGCCTGGC,-0.0417
22,TCAACCAA,-0.0352
23,ACCGAGTG,0.363
24,GGGGTTCA,0.256
25,CACAATCC,0.0268

row,Sequence,binding signal [E-score]
1,GCTTTTCA,-0.105
2,GTCCGAAC,-0.0307
3,ACAATTGT,-0.0258
4,ACGGCCGG,-0.0557
5,AACGCGCA,0.0053
6,ACAGACGG,-0.173
7,GGACGAGA,-0.231
8,AAGGCGGC,-0.106
9,CGTTCCGA,-0.253
10,AACTGGCA,-0.1
11,AGCCCAGA,-0.0357
12,ATAACCCC,0.266
13,TCAAAACA,0.0373
14,GAGAGAAC,0.00213
15,TACCCGAA,-0.0222
16,TGATATCA,-0.0584
17,GCGACCCC,0.212
18,AGGGGATA,0.124
19,AGGAGTCA,0.225
